Results as given in publication PMC6451091.
This is one part of the list. For some of these results: At the low end of the ranking the order means little. For some of these results: Measured with an extract: partners may take part in the binding.

Legend:
Conditions in all cases: 20 mM HEPES pH 7.9, 100 mM NaCl, 1 mM DTT, 0.2 mg/mL BSA, 0.02% Triton X-100, 2% milk, 0.4 mg/mL salmon testes DNA; 1 h; temperature not stated; high values mean tight binding; double strand, one strand shown; sequences stand for … in GCCTAGCAC…GTGCTAGGTCTTGATTCGCTTGACGCTGCTG
PU.1 (IVT) = PU.1 (IVT) (UniProt P17947); assay: protein-binding microarray (PBM)
[1] = biological target: PU.1 (endogenous, THP-1 nuclear extract) (UniProt P17947); assay: nuclear extract protein-binding microarray (nextPBM)
[2] = biological target: T1, FLI1 (endogenous, THP-1 nuclear extract) (UniProt Q01543); assay: as above
T1 sequence: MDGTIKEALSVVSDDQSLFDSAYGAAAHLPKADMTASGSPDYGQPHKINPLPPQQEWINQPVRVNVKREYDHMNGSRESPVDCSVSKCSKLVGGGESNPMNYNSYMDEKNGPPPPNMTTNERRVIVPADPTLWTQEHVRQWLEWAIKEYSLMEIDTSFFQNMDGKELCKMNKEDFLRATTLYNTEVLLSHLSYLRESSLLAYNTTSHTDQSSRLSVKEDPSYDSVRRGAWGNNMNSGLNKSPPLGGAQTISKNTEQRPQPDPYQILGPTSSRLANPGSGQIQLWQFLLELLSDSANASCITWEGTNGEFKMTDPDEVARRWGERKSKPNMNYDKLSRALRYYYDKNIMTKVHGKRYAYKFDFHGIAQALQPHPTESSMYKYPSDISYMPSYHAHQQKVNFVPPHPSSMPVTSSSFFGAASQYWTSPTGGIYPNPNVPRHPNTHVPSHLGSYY

[3] = tested on: PU.1 (endogenous, THP-1 nuclear extract) + IRF8 (endogenous, THP-1 nuclear extract); assay: as above

Row | Sequence | binding signal (PU.1 (IVT)) [z-score] | binding signal [1] [z-score] | binding signal [2] [z-score] | binding signal [3] [z-score]
1 | TTAGAAGGAAAAAGAGAGTG | -0.482 | -0.289 | 0.403 | 0.532
2 | GTAATCCTAGCACTTTTTGG | -0.0126 | -0.834 | -0.934 | -1.82
3 | AAGTGTGGGAGATTTGGAGC | -0.707 | -0.631 | -0.384 | -0.615
4 | TCGGGAAGAGAAGCACAAAG | -0.263 | 0.0229 | 0.323 | -0.442
5 | GGTGGCAGCAGACAGCTGGG | -0.378 | -0.158 | -0.208 | 0.408
6 | TAAAATTGAAAATGCTAAAT | -0.408 | -0.52 | -0.33 | -0.336
7 | ACACCCGTTCCTGTGATCTT | -0.318 | 0.334 | -0.198 | 0.0844
8 | AGTTGGGGAAGGGTGGGGCG | 0.171 | -0.0569 | 0.478 | -2.02
9 | GCGCGCCGTTACCGGCCCAG | -0.815 | -0.475 | 0.0365 | 0.782
10 | CTTGAAGAGAACACAACGCT | -0.0895 | -0.395 | -0.708 | 0.464
11 | TTCACAAAGTTGTGCAATCA | -0.0666 | -0.588 | -0.0407 | 0.344
12 | TAAAAGGAAAAGAGGGCTCC | -0.377 | -0.232 | 0.386 | 0.634
13 | TGACACAGAAGGAAAGTGAG | -0.0222 | 0.0777 | 0.196 | 0.999
14 | CCCCTGCCCGCTTTCTGGAG | -0.079 | -0.134 | 0.23 | -0.407
15 | TTGCCCTTCCCTCCCTCCTC | 0.0537 | 0.874 | 0.425 | 2.33
16 | AAGCAGAACTTCTATTCCAC | 1.03 | 1.12 | -0.0906 | -0.111
17 | CGGGAGGCCGTTTCCAGCTG | -0.836 | -0.325 | 1.01 | 1.32
18 | AGTTTTTAAACTATGCTGCA | -0.082 | -0.529 | -0.318 | 0.264
19 | TCGGTCTGGCATGATGAAGC | -0.297 | -0.338 | -0.619 | 0.412
20 | CATTTGTCTGCGTGAAACTC | -0.459 | -0.679 | -0.544 | 0.433
21 | CATGAATGAGATTTGGAACT | -0.11 | 0.31 | -0.47 | -0.673
22 | CTCCCAGAAAGCAGAACAAA | 4.47 | 4.73 | 1.07 | 0.294
23 | CTCCAAGGTGTGCTACTAAG | -0.398 | -0.177 | 0.0251 | 0.545
24 | TGCAACTGCAAACTACAGTA | -0.135 | -0.418 | -0.483 | -1.09
25 | AAGAAAGGGGAAAAGAAAGG | 1.16 | 0.772 | 0.267 | -0.172
